Measurements: the BET-seq Pho4 binding data (Le et al. 2018)
Some of the results follow. The energies were worked out here from pooled read counts, against the library average; single values are noisy.

Target: T1, Pho4 (S. cerevisiae) (UniProt P07270)
T1 sequence: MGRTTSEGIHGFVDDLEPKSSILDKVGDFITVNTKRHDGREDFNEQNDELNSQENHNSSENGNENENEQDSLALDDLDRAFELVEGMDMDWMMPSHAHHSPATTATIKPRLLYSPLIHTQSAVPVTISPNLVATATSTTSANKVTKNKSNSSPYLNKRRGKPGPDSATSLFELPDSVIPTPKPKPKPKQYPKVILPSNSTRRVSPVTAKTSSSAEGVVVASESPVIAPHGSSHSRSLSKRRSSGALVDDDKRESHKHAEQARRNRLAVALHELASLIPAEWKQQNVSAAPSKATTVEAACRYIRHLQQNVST
Experiment: relative binding free energy (BET-seq); higher = weaker binding
Conditions: reference: library average

Sequence	relative binding free energy [kcal/mol]
CTGTGCACGTGATGCT	0.13
TTTTTCACGTGGTTGT	0.33
GTGTGCACGTGCCGGG	-0.09
GGGATCACGTGTGGGT	0.22
CGGCGCACGTGGGAGA	-0.11
TGTGCCACGTGTGAGG	-0.15
GTGGTCACGTGAAGGG	0.42
GGGGACACGTGAGGGT	0.35
TATCTCACGTGGAGTT	0.1
TTACACACGTGCGGTT	-0.02
TGGGACACGTGGTGAA	0.05
AGGCTCACGTGTATTA	0.29
GTATGCACGTGGACTG	0.05
GCTTACACGTGTAGGT	0.16
TTGATCACGTGGATAA	0.13
ACTGTCACGTGGTATG	-0.03
GAATGCACGTGGGGGG	-0.18
ATTATCACGTGTCGGT	0.2
GCCGTCACGTGGTGTT	-0.01
GCGGGCACGTGGGCTA	-0.21
ATTTGCACGTGAGATT	0.23
TGATGCACGTGTGTAT	0.03
ATGAGCACGTGGTGGA	-0.13

Sequence	relative binding free energy [kcal/mol]
CGTCTCACGTGTGGTT	0.2
TGAGTCACGTGTTGCT	0.02
GTTTACACGTGAGCGG	0.43
ATCGTCACGTGTACTT	0.35
TACAGCACGTGATTGG	0.23
TTTCTCACGTGGATTA	0.21
TGGGACACGTGCGATT	0.2
CAGGTCACGTGGAGGT	0.03
GTTAGCACGTGGATTC	0.1
ATGCACACGTGCGGGG	-0.02
GTATGCACGTGTTTCT	-0.09
CATAGCACGTGGTAGT	-0.1
TGAGGCACGTGGTTAC	-0.15
ATAGTCACGTGGCGGG	-0.05
GCTAGCACGTGGTGCG	-0.11
TTTTTCACGTGCTGAT	0.32
GGGCACACGTGATGGT	0.32
CTGCGCACGTGTGGGG	-0.15
CTAGTCACGTGATTTG	0.21
AGGGCCACGTGGGATA	-0.09
AGGAGCACGTGGGACG	-0.1
GGGTGCACGTGTGAAC	0.17
TTGATCACGTGATGGA	0.32

Sequence	relative binding free energy [kcal/mol]
GGTGACACGTGGCGTT	0.09
AGGAACACGTGGTTTT	0.06
TTTCTCACGTGTTAAA	0.23
CATGTCACGTGGAGGG	-0.13
ATGAACACGTGTGCGT	0.08
GAATGCACGTGGATGG	-0.03
TATAGCACGTGGTATG	-0.24
GTAATCACGTGTTCTG	0.22
TATCTCACGTGGGGGG	0.07
TTAGGCACGTGTGAAG	0.01
TTCAGCACGTGTAGTT	-0.18
GTCTGCACGTGGTTGG	0.06
GGTTTCACGTGAAATA	0.31
ATTACCACGTGAAGTG	0.31
TAGTTCACGTGATTAT	0.31
CTAGGCACGTGGGCTA	-0.1
TAGTGCACGTGAACGT	0.21
TATAGCACGTGGTTAG	-0.27
TGCTTCACGTGGGAGG	0.27
GTGTTCACGTGCGGAG	0.28
AAGGTCACGTGAGTCG	0.21
TAATGCACGTGTATTC	0.22
GGGGACACGTGGGGAT	-0.05

Sequence	relative binding free energy [kcal/mol]
CTAGTCACGTGTGGAA	0.17
CTTTGCACGTGTCGGT	0.08
TTCTTCACGTGGTACT	0.16
TATATCACGTGTGCTT	0.08
CGGGGCACGTGAAGTG	0.25
GTCTGCACGTGTAGGT	0.16
GTGGTCACGTGTCGAG	0.14
TGTATCACGTGTTATA	0.1
CGGCACACGTGTAGGA	0.27
AGCTTCACGTGTTGGC	0.25
TAGAGCACGTGGAGTA	-0.08
TATGTCACGTGAGGTA	0.31
GGTATCACGTGAACGT	0.32
TGAATCACGTGACGGT	0.47
TTCTTCACGTGGATAT	0.2
GAGTTCACGTGGCATG	0.28
TTCATCACGTGTTTGT	0.26
TTGTCCACGTGTTTGT	0.02
TTTGGCACGTGCGGTT	-0.2
GTTCACACGTGGGTGC	0.03
TTTGACACGTGCGAGT	0
TATAACACGTGAAGTG	0.22
AGGAACACGTGTGGCT	0.1

Sequence	relative binding free energy [kcal/mol]
ATTAACACGTGTGGGC	0.01
ATGTACACGTGCGGCG	0.05
ATATGCACGTGGCATG	-0.22
AATTGCACGTGCTTGT	-0.15
TATGGCACGTGAGGAA	0.13
TTGCACACGTGTGGTG	-0.01
GGGGTCACGTGTTCGG	0.22
TCTTACACGTGTGGTG	0.08
TAGTTCACGTGTTCGC	0.27
GTTATCACGTGTTGAA	0.19
ACGGCCACGTGTGAGG	0.05
TTTTTCACGTGTGGTA	0.37
TGTACCACGTGATTTG	0.03
GTGGTCACGTGTGAAT	0.24
CCTGTCACGTGGGTTT	0.02
TAGGGCACGTGGAAGA	-0.04
AGGGTCACGTGGTAGG	0.12
GTAAGCACGTGAATTG	0.27
TAGGTCACGTGTGAAA	0.27
GGGATCACGTGGATGT	0.29
TGTTCCACGTGGTGAT	0.07
TAGAGCACGTGTGTAT	-0.18
GATTTCACGTGGCGAT	0.3
